“And” between values parts separate entries of the source, which are not always exact repeats. Equal values may be shown once. The whole screen tested about 48,000 compounds, of which about 1,200 (2.5%) were called active. Another 2% or so got no clear call; they are omitted.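 The calls were made as follows: active = activation of at least 60% and not above a set upper limit (about 1 call in 100 departs from these limits); inconclusive = activation of 40% to 60%, or above that upper limit; inactive = activation under 40%.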 Some of the results follow.

The assay has as its target Probable G-protein coupled receptor 32 (Homo sapiens) (UniProt O75388). In words: qHTS for Agonists of Human Resolvin D1 Receptor DRV1. Also: 0% is about no effect. To be noted: CHO-K1 GPR32 beta-arrestin PathHunter luminescence, 90 min; at 76.9 µM; hits give high values; zero percent set by DMSO-only wells. An outline of the steps: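 Agonism was scored as beta-arrestin recruitment to ProLink-fused GPR32 in stably transfected CHO-K1 cells, giving a chemiluminescent beta-Gal signal; compounds were incubated 90 min at 37 °C.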
Sequence of UniProt O75388 (O75388 whole entry, looked up, the tested form may be a part): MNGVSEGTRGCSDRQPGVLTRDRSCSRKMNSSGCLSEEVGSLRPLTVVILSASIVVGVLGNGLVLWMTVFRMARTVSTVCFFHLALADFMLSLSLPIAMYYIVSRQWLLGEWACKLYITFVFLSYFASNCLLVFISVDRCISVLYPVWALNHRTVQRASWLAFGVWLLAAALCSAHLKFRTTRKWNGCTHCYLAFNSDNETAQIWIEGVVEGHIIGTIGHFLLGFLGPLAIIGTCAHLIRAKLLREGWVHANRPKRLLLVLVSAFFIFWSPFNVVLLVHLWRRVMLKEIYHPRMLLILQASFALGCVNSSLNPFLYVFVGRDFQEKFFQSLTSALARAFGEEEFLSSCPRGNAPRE
For orientation: qHTS replaces the single test concentration by a dilution series.
On to `O=C(CS(=O)(=O)c1cccc2nsnc12)N1CCN(c2cccc(Cl)c2)CC1`, for which the activation is inactive: 1.37%. For `COc1ccc(-c2cc(-c3ccccc3)c(C#N)c(SCC(O)CS(=O)(=O)Cc3ccc(Cl)cc3)n2)cc1` (stereo not given), the activation was inactive: -1.65%.

Regarding `CC(=O)Nc1nonc1-c1nnc(SCC(=O)Nc2ccc(C)cc2)n1-c1ccccc1`, the activation was inactive: -21.1%. As to `Cc1ccc(N(CC(=O)NCCc2ccc(Cl)cc2)S(=O)(=O)c2c(C)noc2C)cc1`, the activation was inactive: 31.9%. Then `Cc1ccc(C(c2sc3nc(-c4ccco4)nn3c2O)N2CCCC2)cc1` (stereo not given), with inactive: 22.7%. Regarding `COc1cccc(N2CCN(C(=O)c3ccc(C)c(NC(=O)c4nsc5ccccc45)c3)CC2)c1`, the activation was inactive: -6.35%. Turning to `COc1cc(SC)ccc1C(=O)Nc1ccc(S(=O)(=O)Nc2nccc(C)n2)cc1`, the activation was inactive: 4.56%. As for `Cc1ccc(NC(=O)CN2C(=O)c3ccccc3Sc3ccc(C(=O)N4CCOCC4)cc32)cc1F`, the activation was inactive: -11.4%. On to `CC(C)OC(=O)C(C)(C)Oc1ccc(C(=O)c2ccc(Cl)cc2)cc1`, for which the activation was inactive: -8.8% and inactive: -0.062%. As for `Cc1cccc(NC(=O)Cn2nnc(-c3nc(-c4ccncc4)no3)c2N)c1`, the activation is inactive: -13.5%. In the case of `COc1ccc(CN2CCc3c(c(=O)n4ncc(C(=O)N5CCN(c6ccccc6OC)CC5)c4n3C)C2)cc1`, the activation was inactive: 13.9%. Consider `COc1cc(NC(=O)c2cc(C3CC3)nc3c2c(C)nn3-c2ccccc2)cc(OC)c1`, for which the activation was inactive: -36%. Take `COC(=O)Cn1c(=O)c2cccn2c2ccc(F)cc21`: the activation was inactive: -6.49%. Take `Cc1ccccc1N1CCN(S(=O)(=O)c2nnc(NC(=O)c3ccc(C(C)C)cc3)s2)CC1`: the activation was inactive: 2.2%. To `CCOc1ccc(C(=O)Cn2c(=O)n3nc(CCn4nc(C)cc4C)nc3c3cc(OC)c(OC)cc32)cc1` belongs inactive: -5.18%; to `Cc1cccc(N(C)c2nc3ccccc3c3nnc(C)n23)c1`, inactive: -22.7%; to `Cc1ccc(NC(=O)CSc2nnc(-c3ccc([N+](=O)[O-])cc3)o2)c(C)c1`, inactive: 0.0635%. To `Cc1ccc(C(=O)c2cn(CC(=O)Nc3ccc(C(C)C)cc3)c3nc(C)ccc3c2=O)cc1` belongs inactive: 17.1%; to `CCS(=O)(=O)N1CCCC(C(=O)NCCOC)C1` (stereo not given), inactive: -8.82%; to `CCCCCn1c(NCc2ccc(OC)cc2)nc2ccccc21`, inactive: 5.78%. For the compound `CCOc1ccc(-c2nc3c(c(SCC(=O)Nc4ccccc4C)n2)Cc2ccccc2O3)cc1`, the activation is inactive: 4%.

In the case of `COc1ccccc1OC(C)C(=O)Nc1cccc(-c2nc3ccccc3s2)c1` (stereo not given), the activation was inactive: -1.6%. Take `COc1ccc(-n2nc(C(=O)Nc3ccccn3)c3c4ccccc4n(C)c3c2=O)cc1`: the activation was inactive: 8.07%.

With `CCOC(=O)c1ccc(NC(=O)c2cnc3c(-c4ccc(F)cc4)c(C)nn3c2C)cc1`, the activation was inactive: -6.75%. `Cc1cc(C)n(-c2nc3ccccc3nc2Nc2ccc(N(C)C)cc2)n1`: the activation was inactive: -12.8%. In the case of `Cc1ccccc1NC(=O)CC(NCc1cccnc1)C(=O)O` (stereo not given), the activation was inactive: -4.22%. Then `CCc1ccc(CNC(=O)c2cnc3sc(N4CCCC4)nn3c2=O)cc1`, with inactive: -0.732%. Turning to `Cc1ccc(Cl)cc1NC(=O)C1CCN(c2nnc(C)c3c(C)n(-c4ccccc4)nc23)CC1`, the activation was inactive: -8.49%.

With `CN(C)c1ccc(CNC(=O)c2ccc(Cn3c(SCc4ccccc4)nc4cccnc43)cc2)cc1`, the activation is inactive: -31.2%.

Consider `Cc1ccccc1CNC(=O)c1ccc2c(c1)c(C)c(C)n2C`, for which the activation is inactive: -22.5%.

As for `Cc1cc(C)c(Cn2c3ccccc3c3cnn(CC(=O)NCc4cccs4)c(=O)c32)c(C)c1`, the activation was inactive: -16.9%.

With `Cc1ccccc1Cn1nnc2c(=O)[nH]c(C3CCN(C(=O)c4ccc(F)cc4)CC3)nc21`, the activation was inactive: -13.7%. Take `COc1ccc(-c2noc(CNC(=O)c3ccccc3Br)n2)cc1`: the activation is inactive: 9.52%.

On to `CCOc1ccc(-c2cccc(NS(=O)(=O)c3ccc(F)cc3F)c2)nn1`, for which the activation was inactive: -12.9%.

Take `Cc1ccc(S(=O)(=O)CC(=O)Nc2nc3c(C)cc(C)cc3s2)cc1`: the activation was inactive: -12.5%. Consider `Cc1cccc(C(=O)Nc2nnc(S(=O)(=O)N(C)Cc3ccccc3)s2)c1`, for which the activation is inactive: 43.9%. In the case of `COc1ccc(C(=O)c2oc3ccccc3c2NC(=O)c2cc(=O)c3ccc(C)cc3o2)cc1Cl`, the activation is inactive: -7.94%. As to `CCCOc1ccc(C2c3c(-c4ccccc4O)n[nH]c3C(=O)N2CCc2ccccc2)cc1OCC` (stereo not given), the activation is inactive: 6.82%.

As to `COc1cccc(NC(=O)c2cccc3c(=O)c4c([nH]c23)CCCC4)c1`, the activation is inactive: 1.19%. On to `CCOc1ccc(OCC)c(NC(=O)c2cc(S(=O)(=O)N3CCc4ccccc43)cn2C)c1`, for which the activation is inactive: -27.5%. On to `C1CCc2nnnn2CC1`, for which the activation was inactive: -11.2%.

For `CCOc1ccc2ncc3c(-c4ccc(C)cc4)nn(-c4cccc(F)c4)c3c2c1`, the activation was inactive: -2.01%. To `O=S(=O)(c1cccc(Cl)c1)c1nnn2c1nc(NCc1ccc3c(c1)OCO3)c1sccc12` belongs inactive: -22.3%; to `Cc1ccc(S(=O)(=O)NCC(c2ccco2)N2CCOCC2)cc1` (stereo not given), inactive: 13.2%; to `COc1ccc(-c2nc3c(c(SCC(=O)N4CCCCC4)n2)Cc2cc(C)ccc2O3)cc1`, inactive: -7.38%. For the compound `CCOC(=O)CSc1nc(-c2ccc(OCC)cc2)cc(C(F)(F)F)c1C#N`, the activation is inactive: -13.6%.

With `CC(=O)Nc1ccc(/C=C/c2noc(-c3ccccc3O)n2)cc1`, the activation was inactive: -2.89%.

As for `Cc1ccc(C)c(N2CCN(C(=O)Cn3cnc4onc(-c5ccc(F)cc5)c4c3=O)CC2)c1`, the activation was inactive: -9.05%.

Regarding `O=C(O)c1ccccc1S`, the activation was inactive: 1.74%. As to `CCc1nnc(NC(=O)c2cc(=O)c3cc(C)ccc3o2)s1`, the activation is inactive: -0.388%. To `COc1ccccc1CNC(=O)C(=O)NCC(c1cccs1)S(=O)(=O)c1ccccc1` (stereo not given) belongs inactive: 0.0195%; to `Cc1ccc2oc(=O)c3cc(C(=O)NCCCOC(C)C)sc3c2c1`, inactive: -10%; to `CCc1cccc(NC(=O)Cn2c(C(=O)OC)cc3sc(Cl)cc32)c1`, inactive: -0.103%. For the compound `Cc1ccc(-n2c(SCc3ccccc3F)nc3[nH]ncc3c2=O)cc1Cl`, the activation is inactive: -23%. In the case of `CCN(CC)CCNC(=O)C1CCN(C(=O)c2cnn(-c3ccccc3)c2-n2cccc2)CC1`, the activation is inactive: -29.2%. For `COCCc1ccccn1`, the activation was inactive: -2.29%.

Turning to `O=C(NCc1ccccc1)C1CCN(S(=O)(=O)Cc2ccccc2)CC1`, the activation was inactive: 5%. To `CCOC(=O)N1CCc2c(sc3c2C(=O)NC(c2ccc(N(C)C)cc2)N3)C1` (stereo not given) belongs inactive: -13.1%.

With `Cc1ccc2nc(NC(=O)CSc3[nH]c(=O)ncc3C)sc2c1`, the activation is inactive: -4.57%. As for `Cc1ccc(NC(=O)CSc2nc(=O)cc(N)n2-c2ccccc2)cc1`, the activation was inactive: -4.22%.

Take `CC(=O)NCCNC(=O)CCCn1c(=O)[nH]c2ccsc2c1=O`: the activation is inactive: -16.3%.

For `CCCCOc1ccc(C2c3c(oc4ccc(C)cc4c3=O)C(=O)N2CCCN(C)C)cc1OCC` (stereo not given), the activation was inactive: -7.73%. In the case of `O=Nc1ccc2oc(=O)ccc2c1`, the activation was inactive: -14.8%. To `Cc1ccc(C)c(NS(=O)(=O)c2cc3c(cc2C)n(C)c(=O)c(=O)n3C)c1` belongs inactive: 0.269%. Take `Cc1ccc(-n2c(/C=C/c3c(C)n(C)c4ccccc34)nc3ccccc3c2=O)cc1`: the activation was inactive: -6.48%. For the compound `CCN(CC)S(=O)(=O)c1cccc(C(=O)Nc2ccccc2C(=O)Nc2ccc(Cl)cc2)c1`, the activation is inactive: -11.1%. Turning to `COCCN(CCOC)S(=O)(=O)c1ccc(C(=O)Nc2sc3c(c2C(=O)OC)CCN(C)C3)cc1`, the activation was inactive: -2%.

As to `CC(=O)c1ccc(NC(=O)c2cc(C)nn2-c2ccccc2)cc1`, the activation was inactive: -13.7%. For the compound `CCOC(=O)c1c(NC(=O)Cc2coc3cc(C)cc(C)c23)sc2c1CCC2`, the activation is inactive: 3.49%. Then `COC(=O)c1c(NC(C)=O)c2c3c(sc2n1Cc1cc(C)ccc1C)CCCC3`, with inactive: -7.23%. Take `O=[N+]([O-])c1ccc(CSc2ncnc3c2ncn3[C@@H]2O[C@H](CO)[C@@H](O)[C@H]2O)cc1`: the activation is inactive: -7.11%. Take `CN(C)S(=O)(=O)N(CC(=O)NCCSCc1c(F)cccc1Cl)c1ccccc1`: the activation is inactive: 38.4%.

Turning to `CCOC(=O)c1ccccc1NC(=O)c1sc2nc3n(c(=O)c2c1C)CCCCC3`, the activation was inactive: -5.32%.

For the compound `CCCCN(CCCNC(=O)c1cc(Nc2cccc(SC)c2)nc2ccccc12)Cc1ccccc1`, the activation is inactive: -18.1%. For `CCOc1cccc(C(=O)Nc2ccc(-c3nc4ncccc4o3)cc2C)c1`, the activation is inactive: -1.12%. As for `Cc1ccc(NC(=O)c2cc(S(=O)(=O)N3CCC4(CC3)OCCO4)ccc2F)cc1Cl`, the activation is inactive: -32.5%.

Consider `Cc1ccc(S(=O)(=O)N2CCC(N3CCN(Cc4ccccc4)C(=O)C3=O)CC2)cc1C`, for which the activation is inactive: 27.6%.

In the case of `O=c1[nH]c(SCc2c(F)cccc2Cl)nc2c1CCC2`, the activation is inactive: 25%. As to `Cc1cccc(-n2c(C)cc(C(=O)C(=O)Nc3ccccc3F)c2C)c1C`, the activation is inactive: -3.01%. In the case of `CCCN1CCN(CCCNC(=O)c2cc3c(=O)n(CC)c4ccccc4c3s2)CC1`, the activation is inactive: 10%.

Take `COc1ccc(CC(=O)N2CCc3cc(OC)c(OC)cc3C2COc2ccc(F)cc2)cc1` (stereo not given): the activation was inactive: -8.12%. Turning to `COc1ccc(OC)c(NC(=O)c2oc(=O)c3ccccc3c2-c2ccccc2)c1`, the activation is inactive: -8.86%. Take `COc1ccc(N2CCN(S(=O)(=O)c3ccc(F)c(C(=O)Nc4ccccc4Cl)c3)CC2)cc1`: the activation was active: 90.7%. Regarding `Cn1nc(-c2ccccc2F)c2cc(C(=O)NCc3ccccc3Cl)sc21`, the activation was inactive: -3.22%. Regarding `COc1cc2c(cc1OC)C(c1cccc(Cl)c1)CC(=O)N2` (stereo not given), the activation is inactive: 49.9%.

These data come from PubChem BioAssay AID1346428 (National Center for Advancing Translational Sciences (NCATS), 2018).
